Test results published in PubChem BioAssay AID1768 (National Center for Advancing Translational Sciences (NCATS), 2009).
Screen size: about 270,000 compounds; about 620 (0.23%) were called active. The inconclusive results got no clear call from the source; some entries with a clear call stand among them for comparison. Calls come from the whole dose curve; as a rule, active = well fitted inhibition curve with a large enough effect in the polarisation, with a control signal flat (not every such curve was filed as active); inconclusive = small, poorly fitted or top-dose-only effect, or effect the other way, or a change in a side signal; inactive = no such curve, though single readings can be large or run the other way; the % refers to the polarisation. Potencies of inconclusive entries are doubtful fits and often do not repeat. “Side channel” marks fits to a control or component signal instead of the main read-out.

Each compound was assayed against Menin (Homo sapiens) (UniProt O00255) (assay: qHTS Assay for Inhibitors Targeting the Menin-MLL Interaction in MLL Related Leukemias: Competition With Texas Red Labeled MLL-derived Mutant Peptide). Settings: fluorescence polarization; FP activity change, negative = inhibition: at 61.6 µM (top of the series).
Sequence of UniProt O00255 (O00255 whole entry, looked up): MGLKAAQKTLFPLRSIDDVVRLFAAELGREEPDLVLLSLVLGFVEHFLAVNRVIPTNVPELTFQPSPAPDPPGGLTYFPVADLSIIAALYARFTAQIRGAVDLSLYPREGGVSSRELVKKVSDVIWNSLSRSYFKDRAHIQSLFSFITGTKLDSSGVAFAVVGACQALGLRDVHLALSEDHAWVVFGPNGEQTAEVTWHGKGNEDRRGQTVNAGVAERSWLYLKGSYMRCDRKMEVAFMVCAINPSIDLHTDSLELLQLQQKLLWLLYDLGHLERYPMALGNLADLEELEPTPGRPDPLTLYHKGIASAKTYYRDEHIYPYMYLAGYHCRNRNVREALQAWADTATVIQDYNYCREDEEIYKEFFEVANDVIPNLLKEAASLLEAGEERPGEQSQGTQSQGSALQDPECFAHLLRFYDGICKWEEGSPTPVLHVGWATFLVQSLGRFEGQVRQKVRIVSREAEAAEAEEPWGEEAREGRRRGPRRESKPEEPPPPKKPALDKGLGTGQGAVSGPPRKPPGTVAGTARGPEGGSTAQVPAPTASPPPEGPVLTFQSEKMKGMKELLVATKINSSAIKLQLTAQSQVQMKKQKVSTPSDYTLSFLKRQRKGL
Potency is the fitted concentration of half-maximal effect; tags give direction and shape of the fitted curve or compound fluorescence and quenching.
Throughout, for FP activity change, negative = inhibition: % of control where 0% means no effect.

Row | Structure (SMILES) | Potency | FP activity change, negative = inhibition
1 | CN(C)S(=O)(=O)c1cccc(NC(=O)C(c2ccccc2)c2ccccc2)c1 | inconclusive: 12.6 µM [quencher, side channel, partial curve] | –
2 | O=C(Nc1ccc(N2CCCCC2)cc1)c1ccc([N+](=O)[O-])o1 | inconclusive: 20 µM [quencher, side channel, partial curve] | –
3 | CCOc1ccc(-c2cc(CCCC(=O)NCCc3ccc(OC)c(OC)c3OC)no2)cc1 | inconclusive: 39.8 µM [inhibitor, single point] | –
4 | Cc1cccc(N(CC(=O)NCc2ccc(F)cc2)C(=O)c2ccco2)c1 | inconclusive: 14.1 µM [inhibitor, partial curve] | –
5 | O=C(Cc1cccc2ccccc12)Nc1ccc(Br)cc1C(=O)O | inconclusive: 31.6 µM [quencher, side channel, single point] | –
6 | COc1cc(C(CCN2CCCC2)c2c(OC)cc(OC)c3c(-c4ccccc4)cc(=O)oc23)cc(OC)c1OC (stereo unspecified) | inconclusive: 35.5 µM [inhibitor, partial curve] | –
7 | CC1CC(C)(C)CC2(C1)NC(=O)N(CC(=O)NCCc1c[nH]c3ccccc13)C2=O (stereo unspecified) | inconclusive: 39.8 µM [fluorescent, side channel, single point] | –
8 | Oc1ccccc1/C=N/Nc1cccc2cccnc12 | inconclusive: 3.55 µM [quencher, side channel, full curve] | –
9 | O=C(Cc1ccc(-c2ccccc2)cc1)Nc1ccccn1 | inconclusive: 28.2 µM [quencher, single point] | –
10 | O=C(CSc1nc2cc([N+](=O)[O-])ccc2n1-c1ccccc1)NCc1ccc2c(c1)OCO2 | inconclusive: 3.16 µM [quencher, side channel, partial curve] | –
11 | CCC(=O)c1ccc(N2CCN(C(=O)COc3ccc(F)cc3)CC2)c(F)c1 | inconclusive: 3.55 µM [inhibitor, full curve, poor fit] | –
12 | Cc1ccc([C@@H]2C3COCC=C3C(C#N)=C(N)C2(C#N)C#N)o1 (stereo partly specified) | – | inactive: -8.58%
13 | COC(=O)Cc1ccc(NC(=O)c2ccc(C(C)(C)C)cc2)cc1 | – | inactive: 9.44%
14 | O=C(CSc1ccc2nnc(-c3ccccn3)n2n1)Nc1ccc(F)cc1F | – | inactive: 6.26%
15 | O=C(NCc1ccco1)c1ccc2c(=O)n(-c3ccccc3)c(=S)[nH]c2c1 | inconclusive: 35.5 µM [fluorescent, side channel, single point] | –
16 | Cc1nc2ccc(S(=O)(=O)NC(CC(C)C)C(=O)O)cc2s1 (stereo unspecified) | inconclusive: 17.8 µM [inhibitor, partial curve] | –
